# Some of the results follow.
# T1: UNK ZnF1-6 (called full-length) (human, UniProt Q9C0B0 30-357)
# T1 sequence: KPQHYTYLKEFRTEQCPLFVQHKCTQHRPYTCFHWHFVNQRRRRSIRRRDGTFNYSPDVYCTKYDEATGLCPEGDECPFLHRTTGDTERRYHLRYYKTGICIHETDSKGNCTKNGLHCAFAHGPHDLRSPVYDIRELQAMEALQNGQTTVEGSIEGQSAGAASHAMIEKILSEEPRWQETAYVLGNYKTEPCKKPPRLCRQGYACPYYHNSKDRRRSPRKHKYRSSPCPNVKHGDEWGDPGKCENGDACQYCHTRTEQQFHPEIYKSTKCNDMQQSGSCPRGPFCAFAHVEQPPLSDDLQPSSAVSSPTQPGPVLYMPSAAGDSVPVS
# B1: ENSG00000135018:stop:overlap|stop_codon|ENSG00000135018|stop_codon|NA|stop_codon (ssRNA)
# RNA: GGGAGUUCUACAGUCCGACGAUCUAGCAACAGGAGGUGAUAUCAAUGCAGCUAUUGAAAGGUUACUGGGCUCCCAGCCAUCAUAGCAGCAUUUCUGUAUCUUGAAAAAAUGUAAUUUAUUUUUGAUAACGGCUCUUAAACUUUCAACAGAGGAUUGAGCAUCA
# B2: chr17:81921741:81921842:-|3pUTR|ENSG00000197063|msi1|FALSE|unique (ssRNA)
# RNA: GGGAGUUCUACAGUCCGACGAUCAAUUAUAUGUUUAAAAGUUAAAGAAAAAAGAGCUGCAGAGUAUUUAUAAAACUGUCUUUUAGAAAAAAAACAAGCAAGAAGACCAUUUGACCAUAUGAAUGGAAAAGGGAAGAAAGUAUACAACAGAGGAUUGAGCAUCA
# B3: chr2:48962156:48962732:-|three_prime_utr|ENSG00000170820|control|control|control (ssRNA)
# RNA: GGGAGUUCUACAGUCCGACGAUCUAUUCCUGGCAUACCUUUAAGGUAAAUUGGUCAGGAACUAUUAAUUCCAUGUGAUACAUUAGGAAGCUGAAUUAUUAGUAACAACAAUAAUAAUUAAAGAAUGCAAUACUGUAUUACAUACAACAGAGGAUUGAGCAUCA
# B4: chr7:107760707:107760808:+|3pUTR|ENSG00000105879|unk|total|mutant (ssRNA)
# RNA: GGGAGUUCUACAGUCCGACGAUCAAACAUGAAAUAUGCCGUAUGCAGAUAUCAUUUAUCCGACCGUUUGCCGUGUAUACAUUCCGAACAUACUUCUUUUGACAAAGGGUGAUCUGAUUGCUAAUUUACCAUUUUAUUCUGUCACAACAGAGGAUUGAGCAUCA
# B5: chr11:10797513:10797714:-|3pUTR|ENSG00000110321|msi1_unk|FALSE|overlapping (ssRNA)
# RNA: GGGAGUUCUACAGUCCGACGAUCUUCUGCAUAAGGUUUUUUUGUAGUGUAAUGUCUUAAUCAUAGUCUACCAUCAAAUAUUUUAGGAGUAUCUUUAAUGUUUAGAUAGUAUAUUAGCAGCAUGCAAUAAUUACAUCAUAAGUUCAACAGAGGAUUGAGCAUCA
# B6: ENSG00000107863:be:win_3701|CDS|ENSG00000107863|bound_else_gene|NA|bound_elsewhere_windowed (ssRNA)
# RNA: GGGAGUUCUACAGUCCGACGAUCUCUUCACAAAUGAUAAAUAUGCUGAUUUUAUUGAAGCCAAUCGUAAAGAAGAUCCUCUAGAUCGUCUGAAAACAUUAAAAAGACUAAUUCACGAUUUGCCUGAACAUCAUUAUGAAACACCAACAGAGGAUUGAGCAUCA
# B7: chr12:32755127:32755228:-|CDS|ENSG00000139131|unk|total|mutant (ssRNA)
# RNA: GGGAGUUCUACAGUCCGACGAUCCUUCUAUUACCUCUUCCAGCGUUAUGGAUGCAGGGUCCAGCUGGGCGGAUCUGAUCAACCCGGCAACAUCAUGUCCGGAUAUGAGUUCAUCAACAAGUAAGUGCCUUUAAACCUUGGGGACAACAGAGGAUUGAGCAUCA
# B8: chr7:32869000:32869101:-|3pUTR|ENSG00000170852|msi1|total|mutant (ssRNA)
# RNA: GGGAGUUCUACAGUCCGACGAUCAAUUGAGAAACUUUAUGUGUAAUCAUGAGAGUAUAAGAAUCUGGAUUAUCUAACAUUGUCCGCCCUGUGUAUGUACAGUUCAAAAAGUUCAUUUAUAAAAGCCGUUUCCUGUUCCCCGUGCAACAGAGGAUUGAGCAUCA
# B9: chr5:72198766:72198867:+|CDS|ENSG00000131711|msi1_unk|total|mutant (ssRNA)
# RNA: GGGAGUUCUACAGUCCGACGAUCUUCUACCUCUGCAGUCAAAGAGAAAACAGCAACUUGCCACAGUUCCUCUUCUCCACCAACCGAUGCAGCAUCCGCAGAGCCCUAUGGCUUCCGUGCCUCAGUGUUAUUCGAUACAAUGCACAACAGAGGAUUGAGCAUCA
# B10: chr22:40825413:40825514:-|3pUTR|ENSG00000100380|msi1|total|mutant (ssRNA)
# RNA: GGGAGUUCUACAGUCCGACGAUCGGUAAUACCCACAACAACUGCCGUUUCUUACUUGGCCAAGAGAAUGCUUAUUUAAGUGUCCGACUUCCAUUCUGGCAAAAUCUUGCCUUAUCAGAAGACAUUGGAAAGAGGGAUUCCCUUCAACAGAGGAUUGAGCAUCA
# B11: chr22:29555535:29555644:-|3pUTR|ENSG00000184117|unk|total|mutant (ssRNA)
# RNA: GGGAGUUCUACAGUCCGACGAUCUUCCUCAUCUCAAGGCCACCAGUCCCCAGUUAUCACCCUUGGAAAUCCUCUGUUCCGCUCCGUUGCACAAAAGGCCGUAUGUCCAGUGGCCCGAGGUGGGGUGGGAAGAGAGGAGGCCAGCAACAGAGGAUUGAGCAUCA
# B12: chr15:44562695:44563301:-|three_prime_utr|ENSG00000104133|control|control|control (ssRNA)
# RNA: GGGAGUUCUACAGUCCGACGAUCUGAAAUUGUAAAUGUGCUUCUGAAGGACCCUCAGACAGGUUGCUGUCUAAAGGACAUGCUAGCAGGUUAGAUGAUUUCAUAGGUGUCUGUUUUCUUGUACUGUUAGCAGAUUCUGACAGACAACAGAGGAUUGAGCAUCA
# B13: ENSG00000107863:be:win_351|CDS|ENSG00000107863|bound_else_gene|NA|bound_elsewhere_windowed (ssRNA)
# RNA: GGGAGUUCUACAGUCCGACGAUCAUUAUGUACAGGUGACCGAAUUAUAAAAGUCAAUGGAGAAAGUGUUAUUGGCAAAACCUAUUCCCAAGUAAUUGCUUUAAUUCAAAACAGUGAUACAACAUUGGAACUUAGUGUUAUGCCCAACAGAGGAUUGAGCAUCA
# B14: chr1:161190761:161190881:-|3pUTR|ENSG00000158859|msi1|total|mutant (ssRNA)
# RNA: GGGAGUUCUACAGUCCGACGAUCUGCGGGUCACAGGAGGGAGGGGGAAGGCAGGGAGGGCCUGGGCCCCAGUUGUAUUUAUUCCGUAUUUAUUCACUUUUAUUCCGCACCAGGGAAGGGGACAAGGACCCGGGUCCUGGGGAACAACAGAGGAUUGAGCAUCA
# Target: T1, UNK ZnF1-6 (called full-length)
# Assay: nsRBNS (natural sequence RNA bind-n-seq); RBNS binding buffer (assumed for nsRBNS): 25 mM Tris pH 7.5, 150 mM KCl, 3 mM MgCl2, 0.01% Triton X-100, 500 ug/ml BSA, 20 U/ml SUPERase-In, 4 C; UNK is unkempt and MSI1 is Musashi-1; names of the RNAs are library labels; protein concentration not given here; high values mean tight binding
row,Binder,binding signal
1,B1,0.495 enrichment R
2,B2,2.78 enrichment R
3,B3,0.574 enrichment R
4,B4,0.346 enrichment R
5,B5,1.96 enrichment R
6,B6,0.382 enrichment R
7,B7,0.489 enrichment R
8,B8,0.396 enrichment R
9,B9,0.457 enrichment R
10,B10,0.282 enrichment R
11,B11,0.742 enrichment R
12,B12,0.537 enrichment R
13,B13,0.424 enrichment R
14,B14,2.05 enrichment R

# — article PMC12136788
